Measured values from article PMC4336329 (PLoS ONE, 2015).
Screen size: about 310,000 compounds; about 14,000 (4.5%) showed an effect of 50% or more. The effect is printed as a negative number. The list shows a part of the results.

biological target: human ether-à-go-go-related gene (hERG) potassium channel (human, UniProt Q12809); assay: primary screen, population patch clamp on CHO cells stably expressing hERG
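Also: peak tail current of the secondary pulse compared with the same well before compound.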

human ether-à-go-go-related gene (hERG) potassium channel, sequence (Q12809 whole entry, looked up): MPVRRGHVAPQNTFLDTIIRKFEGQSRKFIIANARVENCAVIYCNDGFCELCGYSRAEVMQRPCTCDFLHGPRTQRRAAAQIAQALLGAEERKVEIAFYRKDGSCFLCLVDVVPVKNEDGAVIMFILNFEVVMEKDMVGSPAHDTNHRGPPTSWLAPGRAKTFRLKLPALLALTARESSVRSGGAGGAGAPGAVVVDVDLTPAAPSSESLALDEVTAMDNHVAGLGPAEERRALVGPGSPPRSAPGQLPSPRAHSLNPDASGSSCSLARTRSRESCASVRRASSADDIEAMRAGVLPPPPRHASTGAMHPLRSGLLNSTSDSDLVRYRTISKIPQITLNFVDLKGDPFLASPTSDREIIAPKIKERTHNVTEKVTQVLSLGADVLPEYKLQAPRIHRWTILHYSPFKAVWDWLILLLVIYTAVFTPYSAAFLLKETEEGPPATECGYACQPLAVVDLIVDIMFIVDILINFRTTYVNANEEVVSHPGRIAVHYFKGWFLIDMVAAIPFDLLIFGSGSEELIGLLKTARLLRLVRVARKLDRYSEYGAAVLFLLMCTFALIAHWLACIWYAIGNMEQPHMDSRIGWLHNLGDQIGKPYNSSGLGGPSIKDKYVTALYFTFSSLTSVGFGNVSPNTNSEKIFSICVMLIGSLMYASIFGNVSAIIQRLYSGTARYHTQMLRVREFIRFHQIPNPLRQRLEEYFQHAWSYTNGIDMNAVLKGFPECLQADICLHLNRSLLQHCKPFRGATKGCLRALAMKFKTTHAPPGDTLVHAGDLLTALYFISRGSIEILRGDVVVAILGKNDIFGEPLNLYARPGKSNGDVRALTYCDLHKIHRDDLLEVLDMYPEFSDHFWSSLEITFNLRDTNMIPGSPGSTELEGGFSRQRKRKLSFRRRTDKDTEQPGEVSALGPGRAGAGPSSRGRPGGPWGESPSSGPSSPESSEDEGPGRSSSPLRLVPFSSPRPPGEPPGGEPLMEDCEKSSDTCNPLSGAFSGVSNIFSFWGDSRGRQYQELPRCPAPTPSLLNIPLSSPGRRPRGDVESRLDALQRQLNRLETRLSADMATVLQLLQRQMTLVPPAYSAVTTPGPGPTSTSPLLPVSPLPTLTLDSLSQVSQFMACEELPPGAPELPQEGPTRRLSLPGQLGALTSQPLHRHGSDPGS

| SMILES | hERG current change (%, negative = inhibition) at 10uM |
| --- | --- |
| CCO[C@H]1OC(C(=O)N2CCOCC2)=C[C@@H](c2cn(C(C)=O)c3ccccc23)[C@@H]1CCCO | -4.1% |
| CCN1C(=O)N[C@@H](c2cccc(F)c2)C(C(C)=O)=C1C | 5.39% |
| O=C(C1CCN(S(=O)(=O)c2cccc3nsnc23)CC1)N1CCN(c2ccccc2F)CC1 | -6.85% |
| Cc1cc2c(cc1C)CSC(c1ccccc1OC(=O)C(C)C)SC2 | 7.27% |
| COc1ccc(Cl)cc1NC(=O)C(=O)N/N=C/c1cc(C)n(-c2ccc(C)cc2)c1C | -4.41% |
| CSc1nsc(/C=C/Nc2cccc(Cl)c2)c1C#N | 9.57% |
| O=C(N/N=C1\NC(=O)C(CO)(CO)S1)c1ccccc1 | -4.47% |
| Cc1cc(N2CCOCC2)nc(N)n1 | 20.9% |
| O=C(O)COc1ccc(NC(=O)c2cccs2)cc1 | 12.7% |
| CCN(CC)c1nc(Oc2ccc(C(=O)OC)cc2)nc(N2CCOCC2)n1 | -24.3% |
| COc1cccc(OC)c1C(=O)Nc1ccc(N2CCN(C(=O)c3cccs3)CC2)cc1 | -0.0943% |
| CCOC(=O)C1CCCN(C(=O)c2cccc(NC(=O)C(CC)CC)c2)C1 (stereo not drawn) | 18.7% |
| CCCCn1c(SCC(=O)NC2CCS(=O)(=O)C2)nnc1-c1ccc(OC)cc1 (stereo not drawn) | -4.68% |
| CC(C)(C)c1ccc(C(=O)C2CCCN(C(=O)C3CCOCC3)C2)cc1 (stereo not drawn) | -7.14% |
| O=C(NC(NC1CCS(=O)(=O)C1)C(=O)c1cccs1)c1ccccc1 (stereo not drawn) | -1.01% |
| CC(CN1CCCCC1)C(=O)NNC(=O)C12CC3CC(CC(C3)C1)C2 (stereo not drawn) | 3.74% |
| CCOC(=O)N1CCN(C(=O)c2cc3c(=O)[nH]c4ccccc4c3s2)CC1 | 4.32% |
| O=C(NCC1COc2ccccc2O1)c1cccc(S(=O)(=O)N2CCCCC2)c1 (stereo not drawn) | -25.7% |
| Cc1cc(NC(=O)CSc2nnc(-c3ccco3)n2Cc2ccccc2)no1 | -44.3% |

| SMILES | hERG current change (%, negative = inhibition) at 10uM |
| --- | --- |
| CC(=O)Nc1ccc(S(=O)(=O)Nc2c(C)nn(-c3ccccc3)c2C)cc1 | -7.68% |
| Cc1ccc2cc(S(=O)(=O)NCCCN3CCOCC3)ccc2c1 | -19.4% |
| CCCN(CC1CC1)C(=O)CSc1nnc(-c2ccco2)n1N | -21.2% |
| O=C(N/N=C/c1ccc(Sc2nc3ccccc3[nH]2)o1)c1ccncc1 | 5.7% |
| CCOC(=O)c1cn(CC#N)c2cc(F)c(F)cc2c1=O | 10% |
| CC1(C)CC(=O)C(C(=O)C2CCN(S(=O)(=O)c3ccccc3)CC2)C(=O)C1 | 3.17% |
| O=C(Cc1cscn1)c1ccc(O)cc1O | -9.71% |
| O=C1COc2ccc(C(=O)COc3ccc(Cl)cc3Br)cc2N1 | -15.6% |
| Cc1cc(NC(=O)CCC(=O)N(c2ccccc2F)C(C(=O)NC2CCCC2)c2ccccc2)no1 (stereo not drawn) | 25.6% |
| Oc1ccccc1C(=S)N1CCCCCC1 | 9.43% |
| Cc1ccc(NC(=O)c2cccc(N3C(=O)C4C5CCC(C5)C4C3=O)c2)c(C)c1 (stereo not drawn) | 15% |
| O=c1oc2ccccc2cc1-c1nc2ccccc2o1 | -12.6% |
| O=C(OCC(=O)N1CCCCC1)c1cccc(NS(=O)(=O)c2ccccc2)c1 | 5.54% |
| NC(=O)CC[C@@H]1NC(=O)[C@@H]2CCCN2C(=O)c2cc([N+](=O)[O-])cc(F)c2NCCC[C@@H](C(N)=O)NC1=O | -29.4% |
| CCNC(=O)c1ccc2c(c1)S(=O)(=O)c1ccccc1C2=O | -42.4% |
| Cc1c(=O)n(OCc2cccc(F)c2)c2ccccc2[n+]1[O-] | -3.42% |
| N#Cc1nc(-c2ccc(Cl)cc2)oc1N1CCCCC1 | 5.04% |
| COc1ccc2c(c1)c1ncn(CCc3ccccc3)c(=O)c1n2C | -17.9% |
| NS(=O)(=O)c1cccnc1Nc1ccc(Cl)c(Cl)c1 | -6.54% |

| SMILES | hERG current change (%, negative = inhibition) at 10uM |
| --- | --- |
| CCC(CO)(C(=O)OC1C[N+]2(C)CCC1CC2)c1ccccc1.[I-] (stereo not drawn) | 13.9% |
| CCCCC1(C)Cc2ccccc2C(=S)N1 (stereo not drawn) | 11.6% |
| COc1cccc(NC(=S)N(CCc2c(C)[nH]c3ccc(C)cc23)Cc2cccs2)c1 | 10.7% |
| COc1ccccc1OCc1cc(C(=O)NCCN2CCCC(O)C2)no1 (stereo not drawn) | -1.14% |
| COc1ccc(C2(C(=O)Nc3ccc(OC)cc3OC)CCCC2)cc1 | 0.491% |
| CCCCn1c(O)c(/C=N/NC(=O)c2ccncc2)c(=O)[nH]c1=S | 12.4% |
| COc1ccc(-c2nn(C)c(=O)[nH]2)cc1 | 19.7% |
| CC1CCN(C(=O)COc2ccccc2F)CC1 | 12.7% |
| O=C(c1cnsn1)N1CCCC(Nc2ccc(F)c(F)c2)C1 (stereo not drawn) | 1.04% |
| O=C(NCc1nnc(SCC(=O)N2CCOCC2)o1)c1c(F)cccc1F | 19.6% |
| CCn1c(SCc2ccc([N+](=O)[O-])cc2)nnc1C(C)NC(=O)c1ccccc1Br (stereo not drawn) | -27.6% |
| Cc1cc(C(=O)COC(=O)c2ccc(O)cc2)c(C)n1CC(F)(F)F | 1.56% |
| Cc1c(C(=O)C(=O)N2CCN(C)CC2)c2ccccc2n1C | 3.97% |
| O=C(CSCc1ccc(Br)cc1)N1CCOCC1 | 3.5% |
| CCOc1ccc(N(CC(=O)NC(C)(C)C)C(=O)c2ccco2)cc1 | -1.84% |
| CS(=O)(=O)N(CC(=O)Nc1ccccc1C(=O)N1CCOCC1)c1ccccc1 | 17.7% |
| COc1ccccc1C1C=C(c2ccc(Cl)cc2)Nc2nc(N3C(=O)CCC3=O)nn21 (stereo not drawn) | -32.8% |
| COc1ccc(C(=O)NC(=S)N2CCOCC2)cc1Br | 7.39% |
| CCN(CC)S(=O)(=O)c1ccc(N2CCN(S(=O)(=O)c3ccc4c(c3)OCCO4)CC2)nc1 | -1.34% |
